The full ranking holds about 33,000 sequences; the median of “E-score (-0.5 to 0.5)” is about -0.041, and the highest 2% start at about 0.37. Some of the results follow.
What follows are sequences tested against T1, Ecm22 (UniProt Q05958) (assay: PBM E-score (8-mer binding enrichment) (E-score (-0.5 to 0.5)); higher = stronger / more preferred TF binding; most listed sequences are background and not binding sites). Details: protein concentration: 200 nM; construct: GST-full length.
T1 sequence: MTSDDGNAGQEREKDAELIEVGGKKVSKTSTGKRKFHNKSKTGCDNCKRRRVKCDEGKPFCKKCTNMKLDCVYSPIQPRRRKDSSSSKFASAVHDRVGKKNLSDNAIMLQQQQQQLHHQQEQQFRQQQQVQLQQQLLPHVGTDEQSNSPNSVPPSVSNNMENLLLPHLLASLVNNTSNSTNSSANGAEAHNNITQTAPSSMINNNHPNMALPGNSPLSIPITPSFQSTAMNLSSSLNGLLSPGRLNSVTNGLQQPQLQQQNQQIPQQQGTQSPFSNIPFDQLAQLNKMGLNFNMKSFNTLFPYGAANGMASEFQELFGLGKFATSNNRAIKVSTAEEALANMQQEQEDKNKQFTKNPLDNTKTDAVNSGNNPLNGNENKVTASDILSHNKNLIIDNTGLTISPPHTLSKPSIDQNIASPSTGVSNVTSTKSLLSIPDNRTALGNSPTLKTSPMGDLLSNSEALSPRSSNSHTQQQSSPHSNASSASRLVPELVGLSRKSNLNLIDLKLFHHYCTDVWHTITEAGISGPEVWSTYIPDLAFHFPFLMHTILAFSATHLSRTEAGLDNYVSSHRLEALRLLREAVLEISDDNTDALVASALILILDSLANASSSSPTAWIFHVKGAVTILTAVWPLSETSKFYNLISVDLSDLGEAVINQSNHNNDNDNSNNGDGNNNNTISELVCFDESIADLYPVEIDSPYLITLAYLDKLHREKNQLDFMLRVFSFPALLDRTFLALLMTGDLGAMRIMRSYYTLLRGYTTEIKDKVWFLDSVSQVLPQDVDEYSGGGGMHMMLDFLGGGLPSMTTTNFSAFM
Outline: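 Detection of bound protein used fluorescent anti-GST, with scans normalised by masliner. The proteins were GST-tagged yeast transcription factors applied at about 100-200 nM to universal all-10-mer Agilent arrays made double-stranded by primer extension. Each ungapped eight-base word, pooled with its reverse complement, was scored with an E-score from the Universal PBM Analysis Suite.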

| Sequence | PBM E-score |
| --- | --- |
| AAGGTAGT | -0.0862 |
| AGATAAAA | -0.0871 |
| AATTTCGT | 0.29 |
| GCATGTAA | -0.053 |
| AGCCTGAC | -0.171 |
| ACCTCTCT | -0.148 |
| ATCAGGCA | -0.213 |
| GATACCCA | -0.0895 |
| AACGCTCC | -0.155 |
| GACCCACC | -0.194 |
| AAAGTGAT | -0.0608 |
| CACATTAA | -0.141 |
| TAGATCAA | 0.107 |
| CAATCTGG | -0.231 |
| GCACGATA | 0.0343 |
| AAAGCGTA | 0.146 |
| ACTAAAGC | -0.0525 |
| ACTCATCC | -0.0429 |
| AAACAGCC | -0.158 |
| ATGATTGG | -0.233 |
| GCTACGAA | 0.429 |
| CGTCCGGA | -0.21 |
| ACGTCTAT | -0.142 |
| CCTGGGCA | -0.254 |
| ATTAAGCG | 0.266 |

| Sequence | PBM E-score |
| --- | --- |
| CACGTATA | 0.386 |
| CATCGGAC | 0.0621 |
| AAATCTGA | -0.168 |
| AGCTATGA | 0.0234 |
| GCGGTGAA | -0.0243 |
| TAACCTCA | -0.0217 |
| GGCAAACC | -0.181 |
| AGCGTTCA | -0.121 |
| CATACCTC | 0.0614 |
| GGACTCCA | -0.272 |
| AGAAAACG | 0.16 |
| CCCCATGA | -0.278 |
| ACCATCCA | -0.275 |
| CCATCAAG | -0.0429 |
| GACTGGGA | -0.145 |
| GACAGGGC | 0.0528 |
| ATAGCGAG | 0.158 |
| CTCCCAAC | -0.151 |
| AGGTCAAA | -0.147 |
| CTCGTCGC | 0.174 |
| ACTCAGCA | -0.236 |
| GGTTGCTA | -0.165 |
| ACCTGTGC | -0.138 |
| GTCTTCGA | -0.0558 |
| CGAGTGAG | 0.2 |

| Sequence | PBM E-score |
| --- | --- |
| TCTCCAGA | -0.228 |
| AAGAGTGA | -0.0955 |
| CTACCAAA | -0.148 |
| AGAACACT | 0.09 |
| GCGTCATA | 0.103 |
| AGGCTTGG | -0.142 |
| AACCCGCA | 0.0467 |
| AGAAAGTC | 0.0488 |
| ATAAATCG | 0.139 |
| GAGTCGAC | -0.0529 |
| ACATAGTC | -0.108 |
| ACTCTCAG | -0.239 |
| CGTCGACA | -0.0337 |
| ACCCTGCT | -0.133 |
| GACAAGCC | 0.0233 |
| GGTCAGAA | -0.0884 |
| CCGGAAAC | -0.103 |
| GGAATTAA | 0.026 |
| CATACAAG | -0.122 |
| ATGTGTTG | 0.114 |
| CTCCGAAC | 0.0277 |
| CCATGAGC | -0.315 |
| AACAGGGG | -0.191 |
| GCTTCGCA | 0.193 |
| AGGGCAAG | -0.164 |

| Sequence | PBM E-score |
| --- | --- |
| ATACGATG | 0.472 |
| GAGCGAGC | 0.354 |
| ACGTATGG | 0.267 |
| ACTGTCTA | 0.0316 |
| ACTTCAAG | -0.232 |
| CACAGCCC | -0.306 |
| GTGAAGGA | -0.0823 |
| CAAACCGA | 0.199 |
| ATGAACAC | 0.0536 |
| GCAAAGAA | 0.0167 |
| AAAAATTT | 0.058 |
| ACGAAAAT | 0.365 |
| AGCGGTAA | -0.0814 |
| ATAGGCAC | -0.311 |
| ACTATACG | 0.463 |
| AGTTAGCA | 0.0106 |
| ACCAGAGG | -0.206 |
| ACAATAGG | 0.0119 |
| AATAAAGA | -0.0211 |
| AATGCATA | 0.114 |
| AGTGCGAG | 0.186 |
| AGAGGCCA | -0.203 |
| GACTCCTC | -0.0636 |
| CCGGGATC | 0.0897 |
| TCGTCTAA | 0.15 |

| Sequence | PBM E-score |
| --- | --- |
| AGCCCGAT | -0.0368 |
| TGTCCCAA | -0.146 |
| ATCGTGGG | -0.0631 |
| CGTATCTC | 0.318 |
| ATAGTCTG | -0.113 |
| AACCATCA | -0.0958 |
| ATTCATAC | 0.161 |
| ACAACAGG | -0.0852 |
| GATTTTAA | 0.0106 |
| ATGCAAAT | -0.0229 |
| ATGAGTGC | 0.143 |
| CTAAAAAA | -0.103 |
| AAAATCAG | 0.106 |
| CAAGGTAA | 0.0741 |
| CTCTTATC | 0.0588 |
| CTTATCAA | -0.0509 |
| ATGGATTG | 0.0804 |
| GCTCTACA | 0.0047 |
| AGTACTAC | 0.105 |
| AGAGAAGC | -0.0688 |
| GGCTGGCA | -0.393 |
| ACGATTGG | 0.138 |
| CCATCTCG | 0.105 |
| CTGGTGTA | -0.139 |
| AGCGGTTA | 0.0276 |

| Sequence | PBM E-score |
| --- | --- |
| ATGCCTTC | -0.172 |
| AGGGAGCG | 0.123 |
| CATACCGG | -0.216 |
| ATATTCAT | 0.0445 |
| ACCGTCTC | 0.0168 |
| CCGTTGAC | -0.0148 |
| ACCGACCA | 0.234 |
| ATCAAGGA | -0.0382 |
| AAAGATCA | -0.0296 |
| ACACCTAC | -0.181 |
| CCTTTCCC | -0.145 |
| ATGTAAAA | -0.0201 |
| ACTCAAGG | -0.173 |
| GTACAAAA | 0.21 |
| TACCCCGA | -0.041 |
| ATTTCACC | 0.0803 |
| CAACGTTC | 0.152 |
| CTTTCCTA | -0.392 |
| AGGTTGGA | -0.038 |
| CTGTTGAA | -0.0551 |
| ATCGTGTG | 0.0603 |
| ATTTTGGC | 0.0528 |
| ACTGGTTA | -0.121 |
| ACTTTAAC | 0.0534 |
| ACAGGCCA | -0.197 |

| Sequence | PBM E-score |
| --- | --- |
| ATATCCCA | -0.00174 |
| CGTCAATC | -0.0546 |
| CAGTTGTA | -0.0781 |
| AGAAGTAG | -0.0963 |
| GATTGCGC | -0.103 |
| TCAGTCAA | -0.0947 |
| CAGGGCGC | -0.267 |
| ACAGCCAA | -0.0999 |
| GGCGACAA | -0.164 |
| CGCGGAAC | 0.279 |
| ACAAGGGC | -0.264 |
| AGTGTAAG | -0.154 |
| CCCTAAGG | -0.312 |
| AGCGGAGA | -0.0619 |
| ACTATATC | 0.057 |
| GTCGGATA | 0.308 |
| CATAGCTA | -0.186 |
| CGAGGCCA | 0.196 |
| ATGGAGAG | -0.316 |
| AGGCGACG | 0.00428 |
| GGGGACCC | -0.226 |
| AATCTCCT | -0.279 |

Source: the supplement of paper PMC3334620
